The labels stand for the following.
B1: GPR68, Q15743 (parent)
chain: MGNITADNSSMSCTIDHTIHQTLAPVVYVTVLVVGFPANCLSLYFGYLQIKARNELGVYLCNLTVADLFYICSLPFWLQYVLQHDNWSHGDLSCQVCGILLYENIYISVGFLCCISVDRYLAVAHPFRFHQFRTLKAAVGVSVVIWAKELLTSIYFLMHEEVIEDENQHRVCFEHYPIQAWQRAINYYRFLVGFLFPICLLLASYQGILRAVRRSHGTQKSRKDQIQRLVLSTVVIFLACFLPYHVLLLVRSVWEASCDFAKGVFNAYHFSLLLTSFNCVADPVLYCFVSETTHRDLARLRGACLAFLTCSRTGRAREAYPLGAPEASGKSGAQGEEPELLTKLHPAFQTPNSPGSGGFPTGRLA

Variants of B1 are the subject of data set [1]. In words: cAMP reporter score (Enrich2 score, wild type = 0); higher = more signal; HEK293T, FACS bins.
The variants in data set [2] derive from B1. Briefly: surface expression score (Enrich2 score, wild type = 0); higher = more signal; HEK293T, FACS bins.

Scores with a large standard error are left out. The source holds two more conditions with little spread; they are left out. Names with del lack the residues named; names with ins carry added residues between the positions named. For some of these results: How much ogerin was present is not stated here.

Take MGNITADNSSMSCTIDHTIHQTLAPVVYVTVLVVGFPANCLSLYFGYLQIKARNELGVYLCNLTVADLFYICSLPFWLQYVLQHDNWSHGDLSCQVCGILLYENIYISVGFLCCISVDRYLAVAHPFRFHQFRTLKAAVGVSVVIWAKELLTSIYFLMHEEVIEDENQHRVCFEHYPIQAWQRAINYYRFLVGFLFPICLLLASYQGILRAVRRSHGTQKSRKDQIQRLVLSTVVIFLACFLPYHVLLLIRSVWEASCDFAKGVFNAYHFSLLLTSFNCVADPVLYCFVSETTHRDLARLRGACLAFLTCSRTGRAREAYPLGAPEASGKSGAQGEEPELLTKLHPAFQTPNSPGSGGFPTGRLA [V250I]: the cAMP reporter score stood at 0.536 in data set [1] (pH 5.5); 0.234 in data set [1] (pH 6); 0.5 in data set [1] (pH 6, modulator: ogerin); 0.225 in data set [1] (pH 6.5, modulator: ogerin). Also, the surface expression score in data set [2] was determined as 0.073.

Take MGNITADNSSMSCTIDHTIHQTLAPVVYVTVLVVGFPANCLSLYFGYLQIKARNELGVYLCNLTVADLFYICSLPFWLQYVLQHDNWSHGDLSCQVCGILLYENIYISVGFLCCISVDRYLAVAHPFRFHQFRTLKAAVGVSVVIWAKELLTSIYFLMHEEVIEDENQHRVCFEHYPIQAWQRAINYYRFLVGFLFPICLLLASYQGILRAVRRSHGTQKSRKDQIQRLVLSTVVIFLACFLPYHVLLLHRSVWEASCDFAKGVFNAYHFSLLLTSFNCVADPVLYCFVSETTHRDLARLRGACLAFLTCSRTGRAREAYPLGAPEASGKSGAQGEEPELLTKLHPAFQTPNSPGSGGFPTGRLA [V250H]: the cAMP reporter score in data set [1] (pH 5.5) is -0.096; in data set [1] (pH 6, modulator: ogerin), -0.607; in data set [1] (pH 6.5, modulator: ogerin) it was -1.51. The surface expression score in data set [2] is -2.47.

With MGNITADNSSMSCTIDHTIHQTLAPVVYVTVLVVGFPANCLSLYFGYLQIKARNELGVYLCNLTVADLFYICSLPFWLQYVLQHDNWSHGDLSCQVCGILLYENIYISVGFLCCISVDRYLAVAHPFRFHQFRTLKAAVGVSVVIWAKELLTSIYFLMHEEVIEDENQHRVCFEHYPIQAWQRAINYYRFLVGFLFPICLLLASYQGILRAVRRSHGTQKSRKDQIQRLVLSTVVIFLACFLPYHVLLLGRSVWEASCDFAKGVFNAYHFSLLLTSFNCVADPVLYCFVSETTHRDLARLRGACLAFLTCSRTGRAREAYPLGAPEASGKSGAQGEEPELLTKLHPAFQTPNSPGSGGFPTGRLA [V250G], the cAMP reporter score was -2.28 in data set [1] (pH 5.5); -0.837 in data set [1] (pH 6); -1.53 in data set [1] (pH 6, modulator: ogerin); -1.09 in data set [1] (pH 6.5, modulator: ogerin). Moreover, the surface expression score in data set [2] was -1.62.

Regarding MGNITADNSSMSCTIDHTIHQTLAPVVYVTVLVVGFPANCLSLYFGYLQIKARNELGVYLCNLTVADLFYICSLPFWLQYVLQHDNWSHGDLSCQVCGILLYENIYISVGFLCCISVDRYLAVAHPFRFHQFRTLKAAVGVSVVIWAKELLTSIYFLMHEEVIEDENQHRVCFEHYPIQAWQRAINYYRFLVGFLFPICLLLASYQGILRAVRRSHGTQKSRKDQIQRLVLSTVVIFLACFLPYHVLLLKRSVWEASCDFAKGVFNAYHFSLLLTSFNCVADPVLYCFVSETTHRDLARLRGACLAFLTCSRTGRAREAYPLGAPEASGKSGAQGEEPELLTKLHPAFQTPNSPGSGGFPTGRLA [V250K], the cAMP reporter score is -1.05 in data set [1] (pH 5.5); -0.656 in data set [1] (pH 6); -1.2 in data set [1] (pH 6, modulator: ogerin); -0.329 in data set [1] (pH 6.5, modulator: ogerin). Besides, the surface expression score in data set [2] was -2.44.
